From a collection of fitness landscapes (doi:10.1126/science.1257360)
The list shows a part of the results.

B1: PhoQ; a variant is named by its letters at X, in order, P23837 (parent)
chain: MKKLLRLFFPLSLRVRFLLATAAVVLVLSLAYGMVALIGYSVSFDKTTFRLLRGESNLFYTLAKWENNKLHVELPENIDKQSPTMTLIYDENGQLLWAQRDVPWLMKMIQPDWLKSNGFHEIEADVNDTSLLLSGDHSIQQQLQEVREDDDDAEMTHSVAVNVYPATSRMPKLTIVVVDTIPVELKSSYMVWSWFIYVLSANLLLVIPLLWVAAWWSLRPIEALAKEVRELEEHNRELLNPATTRELTSLVRNLNRLLKSERERYDKYRTTLTDLTHSLKTPLXXLQXXLRSLRSEKMSVSDAEPVMLEQISRISQQIGYYLHRASMRGGTLLSRELHPVAPLLDNLTSALNKVYQRKGVNISLDISPEISFVGEQNDFVEVMGNVLDNACKYCLEFVEISARQTDEHLYIVVEDDGPGIPLSKREVIFDRGQRVDTLRPGQGVGLAVAREITEQYEGKIVAGESMLGGARMEVIFGRQHSAPKDE

Variants of: B1
Experiment: enrichment ratio after two sorts for PhoP signalling (ratio (wild type AVST 3.29)); higher = more functional
Conditions: with PhoP (E. coli)

Variant	enrichment ratio
LGGL	≤ 0.25
MFTD	≤ 0.25
HGGN	≤ 0.25
SKFN	≤ 0.25
FHQE	≤ 0.25
TKFG	≤ 0.25
QCWC	≤ 0.25
MNAF	1.87
NANG	≤ 0.25
YAMG	≤ 0.25
QDQT	≤ 0.25
EAQW	≤ 0.25
TLVW	≤ 0.25
PSCL	≤ 0.25
MLKI	≤ 0.25
ILDR	≤ 0.25
APMY	≤ 0.25
LIEL	≤ 0.25
MVPR	≤ 0.25
VDYE	≤ 0.25
MKIS	≤ 0.25
TAKN	≤ 0.25
TFQI	≤ 0.25
NQAW	≤ 0.25
FCSF	≤ 0.25
YEYN	≤ 0.25

Variant	enrichment ratio
RCFW	≤ 0.25
NAKM	≤ 0.25
GVYP	≤ 0.25
SMLH	2.83
EVVG	≤ 0.25
LCCF	≤ 0.25
KQGS	≤ 0.25
KATY	≤ 0.25
ASNH	2.11
GNLE	1.64
PQHQ	≤ 0.25
MTKR	≤ 0.25
MHVD	≤ 0.25
MCNN	≤ 0.25
RQSH	≤ 0.25
SWNP	≤ 0.25
ATSK	4.37
KFWP	≤ 0.25
LISM	≤ 0.25
FMTM	≤ 0.25
WLCQ	≤ 0.25
PSVH	≤ 0.25
YGKM	≤ 0.25
PTEC	≤ 0.25
DSFK	≤ 0.25
GMGR	3.01

Variant	enrichment ratio
RMPL	≤ 0.25
DSNG	≤ 0.25
SQIH	12.4
YLVL	≤ 0.25
PLHS	≤ 0.25
FFVY	≤ 0.25
VHIF	≤ 0.25
ISRP	≤ 0.25
LFDE	≤ 0.25
PCKG	≤ 0.25
REPP	≤ 0.25
RGDL	≤ 0.25
DFHK	≤ 0.25
PTSP	≤ 0.25
TQFI	6.41
PAPV	≤ 0.25
QDCN	≤ 0.25
FMPH	≤ 0.25
MNQN	≤ 0.25
NLVP	≤ 0.25
ARCH	6.1
DHNH	≤ 0.25
YIPP	≤ 0.25
WAHN	≤ 0.25
MQDH	≤ 0.25
VASI	0.684

Variant	enrichment ratio
AVLH	1.54
VCVD	≤ 0.25
DATP	≤ 0.25
LYNT	≤ 0.25
VADQ	≤ 0.25
MPFR	≤ 0.25
YTNS	≤ 0.25
THMQ	9.12
GYFV	≤ 0.25
NCPS	≤ 0.25
ICVR	≤ 0.25
RYQA	≤ 0.25
DQGL	≤ 0.25
MNVR	≤ 0.25
ETHT	≤ 0.25
TTLY	3.21
GMFW	≤ 0.25
RGFF	≤ 0.25
EYDD	≤ 0.25
RQVD	≤ 0.25
IKMV	≤ 0.25
FFSE	≤ 0.25
MCYA	≤ 0.25
MRYQ	≤ 0.25
GLSA	≤ 0.25
PVNV	≤ 0.25

Variant	enrichment ratio
GAMS	≤ 0.25
ATGE	4.75
EYFQ	≤ 0.25
LFLH	≤ 0.25
ATMY	7.37
TCFP	≤ 0.25
FDPA	≤ 0.25
YTDQ	≤ 0.25
NWLD	≤ 0.25
DADF	≤ 0.25
LWGH	≤ 0.25
EYGG	≤ 0.25
PWCE	≤ 0.25
QFFA	≤ 0.25
RCAQ	≤ 0.25
LAYE	≤ 0.25
ACIG	12.3
VYTL	≤ 0.25
NCML	≤ 0.25
VAYC	≤ 0.25
RQII	≤ 0.25
FFMQ	≤ 0.25
SLYR	≤ 0.25
YCQK	≤ 0.25
QATY	≤ 0.25
DHIN	≤ 0.25

Variant	enrichment ratio
YFGT	≤ 0.25
GLEC	≤ 0.25
VHDK	≤ 0.25
MQST	≤ 0.25
MIQV	≤ 0.25
WQVH	≤ 0.25
ISRH	0.443
GFVE	≤ 0.25
MPMP	≤ 0.25
WYGI	≤ 0.25
WYFW	≤ 0.25
MDGK	≤ 0.25
FKRQ	≤ 0.25
GGFV	≤ 0.25
DDMH	≤ 0.25
LIML	≤ 0.25
KGFQ	≤ 0.25
KIIS	≤ 0.25
VGRT	≤ 0.25
HRWL	≤ 0.25
ISTW	≤ 0.25
WVHI	≤ 0.25
GDSH	≤ 0.25
